Assay results reported in PubChem BioAssay (NCI).
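Values below derive from 48-hour exposures of cells grown in 96-well plates, with endpoints linearly interpolated between the two concentrations bracketing the appropriate inhibition level. The concentration for 50% growth inhibition is given as GI50. TGI is the concentration that stops growth completely.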

Tested on: NCI-H322M lung
Test: inhibition of tumour cell growth, NCI panel, 48 h

| Compound | TGI [µM] | GI50 [µM] |
| --- | --- | --- |
| CCOC(=O)C(=C(SC)SC)c1nn2c(=O)cc(C)nc2s1 | 49.7 | – |
| COc1ccc(C2CC(=O)c3c(OC)cc(OC)cc3O2)cc1 (stereo not given) | > 100 | > 100 |
| Cc1[nH]c(=O)[nH]c(=S)c1C(=O)NC(C)(CO)CO | > 100 | – |
| CCCCCCCCCCCCCCCCCc1cccc(OCOCCOC)c1CO | > 100 | – |
| COc1cc2c3c(n(CCCCl)c(=O)c2cc1OC)-c1ccccc1C3=O | > 100 | 66.6 |
| CCOC(=O)CC(NC(=O)c1nc[nH]c1[N+](=O)[O-])C(=O)OCC (stereo not given) | > 100 | – |
| CCOC(=O)c1c(C)n(Cc2ccc(OC)cc2)c2c1cc(O)c1[nH]c3c(c12)CCCC3 | 27.7 | 2.83 |
| N#Cc1nc(COCCOCc2ccccc2)oc1N | > 100 | – |
| CC1=CC(=O)NCCN1C | > 100 | – |
| COC(=O)C(=O)C(C(=O)C=C(C)C)C(=O)C(=O)Nc1ccc(Cl)cc1C (stereo not given) | > 100 | – |
| CC(=O)NNc1nc(C)c(C(/C=C/c2cccc([N+](=O)[O-])c2)=N/NC(=S)NN)s1 | > 100 | – |
| C#CC[C@]12CC(=O)CC[C@H]1CC(=O)C2 | > 100 | – |
| COc1ccc(/C(=N/Nc2ccc([N+](=O)[O-])cc2)Sc2cc(Cl)c(C)cc2S(N)(=O)=O)cc1 | 7.67 | 2.52 |
| Cc1ccc2nc3ccccc3c(C3C4C(=O)N(c5ccc(Br)cc5Cl)C(=O)C4ON3C(C(N)=O)c3ccccc3)c2c1 (stereo not given) | > 25 | – |
| CN(CCCNc1ccc2ncn3c4ccccc4c(=O)c1c23)CCCN1C(=O)c2cccc3cc([N+](=O)[O-])cc(c23)C1=O | 1.9 | – |
| CC(C)(C)OC(=O)N(CCCN(CCn1c2c(c3ccccc3c1=O)C(=O)c1ccccc1-2)C(=O)OC(C)(C)C)CCn1c2c(c3ccccc3c1=O)C(=O)c1ccccc1-2 | > 50 | > 50 |
| CC(=O)O[C@@H]1C=C(C)[C@H](CBr)O[C@@]2(C)CC[C@H](Br)C(C)(C)[C@H]12 | > 100 | – |
| COC(=O)CSc1n[nH]c(-c2ccc(O)c([N+](=O)[O-])c2)n1 | > 100 | – |
| N#[O+].O=S(=O)([O-])[O-].[NH2-].[NH2-].[NH2-].[NH2-].[NH2-].[Ru+5] | > 100 | – |
| Nc1nccc(-c2c(-c3ccc(F)cc3)ncn2CCCN2CCOCC2)n1 | > 25 | > 25 |
| O=[N+]([O-])C(C(Cl)=C(Cl)Cl)=C(N1CCOCC1)N1CCOCC1 | > 100 | – |
| CSc1nc(NC2OC(COC(C)=O)C(OC(C)=O)C(OC(C)=O)C2OC(C)=O)c2c(OC(C)=O)c(C)c(=O)oc2n1 (stereo not given) | > 100 | – |
| COc1cc2c3c(n(CCCBr)c(=O)c2cc1OC)-c1ccc(NC(C)=O)cc1C3=O | > 100 | 30 |
| Oc1ccc2ccccc2c1N=Nc1ccc(F)cc1 | > 100 | – |
| Cc1cccc2c(N)c3cccc(C(=O)NCCCNCCN)c3nc12 | 18.2 | – |

| Compound | TGI [µM] | GI50 [µM] |
| --- | --- | --- |
| CC[N+](C)(CC)Cc1ccccc1[N+](=O)[O-] | > 100 | – |
| O=C(O)c1cc(N=Nc2ccc([As](=O)(O)O)cc2)ccc1O | > 100 | – |
| CCCCn1c(C)c(C(=O)OCC)c2cc(OCc3ccc(C(=O)Nn4c(C)ccc4C)cc3)c(Br)cc21 | > 100 | – |
| Cc1cc(NS(=O)(=O)c2ccc(N=Nc3c(O)c(C(=O)O)cc4ccccc34)cc2)nc(C)n1 | > 100 | – |
| CCCCn1c(-c2ccc(C(=O)O/N=C(\N)c3ccc(OC)cc3)cc2)nc(-c2ccccc2)c1-c1ccccc1 | > 100 | 3.15 |
| CN1C(NC(=O)c2ccc(Cl)nc2)=NS(=O)(=O)c2cc(Cl)ccc21 | > 100 | 42.1 |
| O=C(O)C(Sc1ccc(Cl)cc1)Sc1ccc(Cl)cc1 | > 100 | – |
| c1ccc2c(c1)nc1n2CNCC1 | > 100 | – |
| C[C@]12CC[C@@H]3c4ccc(O)cc4C[C@@H](CCCCCCCCCS(=O)CCCC(F)(F)C(F)(F)F)[C@H]3[C@@H]1CC[C@@H]2O (stereo not given in full) | > 100 | > 68.7 |
| NCCCCn1c2c(c3ccccc3c1=O)C(=O)c1ccccc1-2 | 2.05 | 0.376 |
| C=CCN1C(=O)/C(=C/c2ccccc2)NC1=S | > 100 | – |
| CC(C(=O)O)c1cnn(-c2ccccc2)c1-n1cccc1 (stereo not given) | > 100 | – |
| C1=C2C3=[N+](CCCC3)CC2Cc2ccsc21 (stereo not given) | > 100 | – |
| CC(C)CCN=c1cc2n(-c3ccc(Cl)cc3)c3ccccc3nc-2cc1Nc1ccc(Cl)cc1 | 52.6 | – |
| CN1CCC(OC(=O)Oc2ccccc2)(c2ccccc2)CC1 | 49.9 | – |
| N#CCCN(CCC#N)c1ccc(C(=O)NN)cc1 | > 100 | – |
| O=C(CSc1nnc(Cc2ccccc2)o1)Nc1cccc([N+](=O)[O-])c1 | > 100 | – |
| CCOCNC(=O)N(COCC)COCC | > 100 | – |
| CC(=O)OCC1OC(N2C(c3ccccc3)=CC(c3ccccc3)C(C#N)=C2S)C(OC(C)=O)C(OC(C)=O)C1OC(C)=O (stereo not given) | > 100 | – |
| CCOc1cc(NC(C)=O)ccc1C(=O)NN1C(=O)C(Oc2ccccc2)C1c1ccc(O)c(OC)c1 (stereo not given) | > 100 | – |
| COc1cc([C@@H]2c3cc4c(cc3C(O[C@@H]3O[C@@H]5CO[C@@H](c6cccs6)OC5[C@H](O)[C@H]3O)C3COC(=O)[C@@H]32)OCO4)cc(OC)c1O (stereo not given in full) | 5.38 | 0.963 |
| CCOC(=O)C(Cl)(NC(=O)c1ccc(F)cc1)C(F)(F)F (stereo not given) | > 100 | – |
| CCOC(=O)NC(Nc1ccc(S(=O)(=O)Nc2ncccn2)cc1)(C(=O)OCC)C(F)(F)F (stereo not given) | > 100 | – |
| CN(C)/N=C(\CCN1CCCC1)CC(c1ccccc1)c1c(O)c2ccccc2oc1=O (stereo not given) | > 100 | – |
| CCc1cccc(C)c1NC(C)=O | > 100 | – |

| Compound | TGI [µM] | GI50 [µM] |
| --- | --- | --- |
| O=C(O)C1C(C(=O)O)C(C(=O)O)C1C(=O)O (stereo not given) | > 100 | – |
| CC(=O)c1ccc(NC(=O)/C(Cc2ccccn2)=N/NC(=O)C[N+](C)(C)C)cc1 | > 100 | – |
| COc1ccc(S(=O)(=O)N(Cc2ccc3c(n2)C=CC(C)(C)O3)C2CCC2)cc1OC | 0.253 | < 0.01 |
| Cn1c(=O)c2c(nc(NCCCCl)n2CC(=O)NCCCCl)n(C)c1=O | > 100 | – |
| CN(C)C(=S)SN(C)C(=O)Nc1ccccc1 | > 96.5 | – |
| COc1cc(C2c3cc4c(cc3[C@H](OCCN(C)C)[C@@H]3COC(=O)C23)OCO4)cc(OC)c1O (stereo not given in full) | 27.5 | – |
| NCCCNCCSSCCCCS(=O)O | > 100 | – |
| Cc1oc2nc(N(C)C)nc(Cl)c2c1C | > 100 | – |
| COc1ccc(C2CC(=O)c3c(O)c(OC)c(OC)c(OC)c3O2)c(O)c1 (stereo not given) | 40 | 0.96 |
| O=C1NC(Nc2cccc(Cl)c2)=N/C1=C\c1ccc(Cl)c(Cl)c1 | 15.7 | – |
| C=C1CC[C@@]2(OC1)OC1C[C@H]3[C@@H]4CC=C5C[C@@H](O)CC(OC6OCC(OC(=O)[C@@H](O)[C@@H](C)CC)C(OC(C)=O)C6OC6OC(C)C(O)C(O)C6O)[C@]5(C)[C@H]4CC[C@]3(C)C1[C@@H]2C (stereo not given in full) | 8.41 | – |
| Cn1cc(-c2csc(-c3cccc(F)c3)n2)c2cccnc21 | 45.3 | 17 |
| CSc1ccc(/C=C2/C[N+](C)(C)C/C(=C/c3ccc(SC)cc3)C2=O)cc1 | > 100 | – |
| COc1cc2c(c(OC)c1OC)-c1ccc(SC)c(=O)cc1C(CC(=O)Oc1ccc([N+](=O)[O-])cc1)C2 (stereo not given) | > 50.2 | – |
| Cc1ccc(C(=O)/C=C/c2ccccc2O)c(C)c1 | > 100 | – |
| COc1ccc(C(=O)O)c(Cc2cccc3ccccc23)c1 | > 100 | – |
| COc1ccc2c(c1)OCc1c-2oc2ccccc2c1=O | > 100 | – |
| COC1(OC)C2(Cl)CCC1(Cl)C(OC(C)=O)C2 (stereo not given) | > 100 | – |
| Cn1cc(C2=C(c3cn(CCCN=C(N)N)c4ccccc34)C(=O)NC2=O)c2ccccc21 | > 25 | > 25 |
| CC[C@H](C)[C@H](NC(=O)[C@H]1CCCCN1C)C(=O)N(C)[C@H](CCc1nc(C(=O)N[C@@H](Cc2ccccc2)C[C@H](C)C(=O)OC)cs1)C(C)C | > 25 | 1.3 |
| O=c1[nH]c(=O)n(C2CC(O)C(CS)O2)cc1F (stereo not given) | > 100 | – |
| COc1ccc2cc(C(=O)/C=C/c3cccc(OC)c3OC)ccc2c1 | 40.4 | 18.4 |
| Cc1ccc(S(=O)(=O)OC2C3OC(C)(C)OC3OC2C(c2cc(O)c3c(c2O)C(=O)c2ccccc2C3=O)c2cc(O)c3c(c2O)C(=O)c2ccccc2C3=O)cc1 (stereo not given) | > 10 | – |
| COc1cc(C(=O)O[C@H](C(N)=O)[C@]2(C)CO2)c2ccccc2c1 | 65.6 | 27.2 |
| CC(C)NC(=O)OCc1c(COC(=O)NC(C)C)c(-c2ccc[n+](COC(=O)CC(C)(C)C)c2)n2c1CCC2 | > 100 | – |

| Compound | TGI [µM] | GI50 [µM] |
| --- | --- | --- |
| COC(=O)c1ccc2c(c1)CC1(C2)Cc2cc3c(cc2C1=O)CCC3 (stereo not given) | 74.1 | – |
| O=C1C(Br)=CC2(C=C1Br)CCN=c1c(O)c3c(c(O)c12)=NC=N3 | 29.9 | – |
| COc1cccc(N=Cc2c3ccccc3c(=O)n3c2oc2ccccc23)c1 | 36.3 | 3.08 |
| CCOC(=O)N/N=C(/N)Cc1ccccc1 | > 100 | – |
| CCOC(=O)c1c(SC(=O)/C=C/c2ccccc2)n(-c2ccccc2)c(=S)n(-c2ccccc2)c1=O | > 100 | – |
| O=C1SCC(O)=C1/C=N/Nc1nc2ccccc2o1 | > 100 | – |
| COC(=O)CCC(=O)NC1c2cccc3cccc(c23)Cn2c(=O)n(C)c(=O)n21 (stereo not given) | > 100 | – |
| CCCNC(=S)N/N=C(\C)c1ccccn1 | > 100 | 0.105 |
| O=[N+]([O-])c1ccc2nnnn2c1 | 88 | – |
| CCOC(=O)Cn1sc2ncc([N+](=O)[O-])cc2c1=O | 31.5 | – |
| COc1cc2c(/C=C3/C(=O)Nc4cccc(Cl)c43)c(Cl)n(Cc3ccccc3)c2cc1C | > 80.2 | 12 |
| Cc1cccc(N2C(=O)C(Cl)=C(Cl)C2=O)c1 | > 100 | – |
| C=C(C)[C@@H](C(=O)OC)N1C(=O)c2ccccc2C1=O | > 100 | – |
| CNC=O.[O]=[Ge].[O]=[Ge].[O]=[Ge].[O]=[Ge][OH].[O]=[Ge][OH] | > 100 | – |
| Nc1nc(Cl)cc(NCC2(CO)CC(OCc3ccccc3)C2)n1 (stereo not given) | > 100 | – |
| COc1cc(-c2c(C#N)c(N)n3c(nc4ccccc43)c2C#N)cc(Br)c1OC | > 100 | > 100 |
| CCN(CC)C(=O)C/C(C)=N/NC(=O)c1ccncc1 | > 100 | – |
| CC(=O)OC1CC2OC(Cc3ccccc32)O1 (stereo not given) | > 100 | – |
| CC(=O)NC(CCCN)C(=O)NCc1ccccc1 (stereo not given) | > 100 | – |
| Cc1cc(C2CCCCC2)n(O)c(=O)c1 | > 100 | 1.47 |
| COC(=O)C1=C(c2ccc3c(c2)OCO3)O[C@H](c2ccc3c(c2)OCO3)[C@H]1COC(C)=O | > 100 | – |
| O=C(c1ccc(Cl)cc1Cl)N(C(=O)N1CCCCC1)c1ccccc1 | > 100 | – |
| CC(C)CSc1nc(Nc2ccccc2)c(C#N)c(-c2ccc(F)cc2)n1 | 23 | 2.54 |
| COc1ccc(-c2cc3c(nn2)-c2ccccc2C3=O)cc1 | > 100 | > 100 |
